Measurements published in article PMC9911399, “Two distinct binding modes provide the RNA-binding protein RbFox with extraordinary sequence specificity”.
Residue numbers refer to the chain shown, from its start. The list shows a part of the results.

T1: RBFOX1 RRM RbFoxmut (Fox-RRM*) (Homo sapiens, UniProt Q9NWB1 109-208, R118D;E147R;N151S;E152T)
T1 sequence: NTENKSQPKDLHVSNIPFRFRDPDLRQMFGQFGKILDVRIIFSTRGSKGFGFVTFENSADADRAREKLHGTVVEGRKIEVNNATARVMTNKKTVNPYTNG

B1: GGCUGUG (DNA:RNA)
RNA: GGGAGACCGGAAUUCAGAUUGUCCGGCUGUGUUAAAUCCCGUCGUAGCCACCA
DNA 1: CAATCTGAATTCCGGTCTCCC
DNA 2: TGGTGGCTACGACGGGATT
B2: UAUUAGC (DNA:RNA)
RNA: B1 RNA with G25U, G26A, C27U, G29A, U30G, G31C
DNA 1: CAATCTGAATTCCGGTCTCCC
DNA 2: TGGTGGCTACGACGGGATT
B3: UGAGCAA (DNA:RNA)
RNA: B1 RNA with G25U, C27A, U28G, G29C, U30A, G31A
DNA 1: CAATCTGAATTCCGGTCTCCC
DNA 2: TGGTGGCTACGACGGGATT
B4: UUCUCUU (DNA:RNA)
RNA: B1 RNA with G25U, G26U, G29C, G31U
DNA 1: CAATCTGAATTCCGGTCTCCC
DNA 2: TGGTGGCTACGACGGGATT
B5: CCGGCAG (DNA:RNA)
RNA: B1 RNA with G25C, G26C, C27G, U28G, G29C, U30A
DNA 1: CAATCTGAATTCCGGTCTCCC
DNA 2: TGGTGGCTACGACGGGATT
B6: UGAUUGU (DNA:RNA)
RNA: B1 RNA with G25U, C27A, G29U, U30G, G31U
DNA 1: CAATCTGAATTCCGGTCTCCC
DNA 2: TGGTGGCTACGACGGGATT
B7: AUGGGGU (DNA:RNA)
RNA: B1 RNA with G25A, G26U, C27G, U28G, U30G, G31U
DNA 1: CAATCTGAATTCCGGTCTCCC
DNA 2: TGGTGGCTACGACGGGATT
B8: AGAUGUC (DNA:RNA)
RNA: B1 RNA with G25A, C27A, G31C
DNA 1: CAATCTGAATTCCGGTCTCCC
DNA 2: TGGTGGCTACGACGGGATT
B9: CGACAGA (DNA:RNA)
RNA: B1 RNA with G25C, C27A, U28C, G29A, U30G, G31A
DNA 1: CAATCTGAATTCCGGTCTCCC
DNA 2: TGGTGGCTACGACGGGATT
B10: GGUUGUU (DNA:RNA)
RNA: B1 RNA with C27U, G31U
DNA 1: CAATCTGAATTCCGGTCTCCC
DNA 2: TGGTGGCTACGACGGGATT
B11: AAAGAAU (DNA:RNA)
RNA: GGGAGACCGGAAUUCAGAUUGUCCAAAGAAUUUAAAUCCCGUCGUAGCCACCA
DNA 1: CAATCTGAATTCCGGTCTCCC
DNA 2: TGGTGGCTACGACGGGATT
B12: GUAUGAG (DNA:RNA)
RNA: B1 RNA with G26U, C27A, U30A
DNA 1: CAATCTGAATTCCGGTCTCCC
DNA 2: TGGTGGCTACGACGGGATT
B13: GCACCCU (DNA:RNA)
RNA: B11 RNA with A25G, A26C, G28C, A29C, A30C
DNA 1: CAATCTGAATTCCGGTCTCCC
DNA 2: TGGTGGCTACGACGGGATT
B14: CAUCACG (DNA:RNA)
RNA: B11 RNA with A25C, A27U, G28C, A30C, U31G
DNA 1: CAATCTGAATTCCGGTCTCCC
DNA 2: TGGTGGCTACGACGGGATT
B15: GUGGCCC (DNA:RNA)
RNA: B11 RNA with A25G, A26U, A27G, A29C, A30C, U31C
DNA 1: CAATCTGAATTCCGGTCTCCC
DNA 2: TGGTGGCTACGACGGGATT
B16: UAGUGGG (DNA:RNA)
RNA: B1 RNA with G25U, G26A, C27G, U30G
DNA 1: CAATCTGAATTCCGGTCTCCC
DNA 2: TGGTGGCTACGACGGGATT
B17: CGCGAAC (DNA:RNA)
RNA: B11 RNA with A25C, A26G, A27C, U31C
DNA 1: CAATCTGAATTCCGGTCTCCC
DNA 2: TGGTGGCTACGACGGGATT
B18: UUAGGUU (DNA:RNA)
RNA: B11 RNA with A25U, A26U, A29G, A30U
DNA 1: CAATCTGAATTCCGGTCTCCC
DNA 2: TGGTGGCTACGACGGGATT
B19: UGCUUCA (DNA:RNA)
RNA: B1 RNA with G25U, G29U, U30C, G31A
DNA 1: CAATCTGAATTCCGGTCTCCC
DNA 2: TGGTGGCTACGACGGGATT
B20: UGAGGUG (DNA:RNA)
RNA: B1 RNA with G25U, C27A, U28G
DNA 1: CAATCTGAATTCCGGTCTCCC
DNA 2: TGGTGGCTACGACGGGATT
B21: UCCUAGA (DNA:RNA)
RNA: B1 RNA with G25U, G26C, G29A, U30G, G31A
DNA 1: CAATCTGAATTCCGGTCTCCC
DNA 2: TGGTGGCTACGACGGGATT
B22: ACAAGUA (DNA:RNA)
RNA: B11 RNA with A26C, G28A, A29G, A30U, U31A
DNA 1: CAATCTGAATTCCGGTCTCCC
DNA 2: TGGTGGCTACGACGGGATT
B23: CCAUGAG (DNA:RNA)
RNA: B1 RNA with G25C, G26C, C27A, U30A
DNA 1: CAATCTGAATTCCGGTCTCCC
DNA 2: TGGTGGCTACGACGGGATT
B24: CGUGAUU (DNA:RNA)
RNA: B11 RNA with A25C, A26G, A27U, A30U
DNA 1: CAATCTGAATTCCGGTCTCCC
DNA 2: TGGTGGCTACGACGGGATT
B25: CUCCGUC (DNA:RNA)
RNA: B1 RNA with G25C, G26U, U28C, G31C
DNA 1: CAATCTGAATTCCGGTCTCCC
DNA 2: TGGTGGCTACGACGGGATT
B26: AGGGCCA (DNA:RNA)
RNA: B11 RNA with A26G, A27G, A29C, A30C, U31A
DNA 1: CAATCTGAATTCCGGTCTCCC
DNA 2: TGGTGGCTACGACGGGATT
B27: ACUACUG (DNA:RNA)
RNA: B1 RNA with G25A, G26C, C27U, U28A, G29C
DNA 1: CAATCTGAATTCCGGTCTCCC
DNA 2: TGGTGGCTACGACGGGATT
B28: UCAAGCA (DNA:RNA)
RNA: B11 RNA with A25U, A26C, G28A, A29G, A30C, U31A
DNA 1: CAATCTGAATTCCGGTCTCCC
DNA 2: TGGTGGCTACGACGGGATT
B29: UGGAGAG (DNA:RNA)
RNA: B1 RNA with G25U, C27G, U28A, U30A
DNA 1: CAATCTGAATTCCGGTCTCCC
DNA 2: TGGTGGCTACGACGGGATT
B30: CGUGGAG (DNA:RNA)
RNA: B1 RNA with G25C, C27U, U28G, U30A
DNA 1: CAATCTGAATTCCGGTCTCCC
DNA 2: TGGTGGCTACGACGGGATT
B31: CUACAGC (DNA:RNA)
RNA: B11 RNA with A25C, A26U, G28C, A30G, U31C
DNA 1: CAATCTGAATTCCGGTCTCCC
DNA 2: TGGTGGCTACGACGGGATT

Target: T1, RBFOX1 RRM RbFoxmut (Fox-RRM*)
Test: EMSA; HiTS-Eq, 1 nM pool, 10 min; buffer printed only for the single-RNA assays: 10 mM Tris pH 7.5, 150 mM NaCl, 3.4 mM EDTA, 0.001% NP-40, 30 C
Settings: tags: His6 N-terminal (pET28a); label: 5' 32P
Method in brief: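 Purified wild-type or mutant RbFox RRM at increasing concentrations was equilibrated with 1 nM of 5′-radiolabelled RNA carrying 7 randomized nucleotides for 10 min in 50 µL. Unbound RNA was separated by 8% native PAGE and sequenced. Relative association constants came from read-count changes of each RNA species compared with the control reaction, normalised to the cognate motif.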

**Q.** How did the binding signal turn out when B1 was run?
**A.** Its binding signal is 0.235 KA relative to UGCAUGU.

**Q.** For B2, which binding signal is on record?
**A.** The binding signal was 0.0989 KA relative to UGCAUGU.

**Q.** B3 was tested. Which binding signal did it give?
**A.** Its binding signal is 0.0622 KA relative to UGCAUGU.

**Q.** With B4 as the binder, how does the binding signal read?
**A.** Its binding signal is 0.0504 KA relative to UGCAUGU.

**Q.** Which binding signal does the source give for B5 here?
**A.** The binding signal was 0.107 KA relative to UGCAUGU.

**Q.** For B6, which binding signal is on record?
**A.** Its binding signal is 0.308 KA relative to UGCAUGU.

**Q.** With B7 as the binder, how does the binding signal read?
**A.** Its binding signal is 0.136 KA relative to UGCAUGU.

**Q.** How did the binding signal turn out when B8 was run?
**A.** Its binding signal is 0.141 KA relative to UGCAUGU.

**Q.** B9 was tested. Which binding signal did it give?
**A.** The binding signal was 0.0472 KA relative to UGCAUGU.

**Q.** B10 was tested. Which binding signal did it give?
**A.** Its binding signal is 0.147 KA relative to UGCAUGU.

**Q.** B11 was tested. Which binding signal did it give?
**A.** Its binding signal is 0.0976 KA relative to UGCAUGU.

**Q.** How did the binding signal turn out when B12 was run?
**A.** Its binding signal is 0.513 KA relative to UGCAUGU.

**Q.** B13 was tested. Which binding signal did it give?
**A.** The binding signal was 0.0722 KA relative to UGCAUGU.

**Q.** Which binding signal does the source give for B14 here?
**A.** The binding signal was 0.124 KA relative to UGCAUGU.

**Q.** Which binding signal does the source give for B15 here?
**A.** Its binding signal is 0.0951 KA relative to UGCAUGU.

**Q.** With B16 as the binder, how does the binding signal read?
**A.** Its binding signal is 0.109 KA relative to UGCAUGU.

**Q.** B17 was tested. Which binding signal did it give?
**A.** Its binding signal is 0.0649 KA relative to UGCAUGU.

**Q.** B18 was tested. Which binding signal did it give?
**A.** Its binding signal is 0.108 KA relative to UGCAUGU.

**Q.** With B19 as the binder, how does the binding signal read?
**A.** Its binding signal is 0.21 KA relative to UGCAUGU.

**Q.** With B20 as the binder, how does the binding signal read?
**A.** The binding signal was 0.125 KA relative to UGCAUGU.

**Q.** For B21, which binding signal is on record?
**A.** Its binding signal is 0.138 KA relative to UGCAUGU.

**Q.** For B22, which binding signal is on record?
**A.** The binding signal was 0.153 KA relative to UGCAUGU.

**Q.** With B23 as the binder, how does the binding signal read?
**A.** Its binding signal is 0.0979 KA relative to UGCAUGU.

**Q.** B24 was tested. Which binding signal did it give?
**A.** The binding signal was 0.106 KA relative to UGCAUGU.

**Q.** Which binding signal does the source give for B25 here?
**A.** The binding signal was 0.116 KA relative to UGCAUGU.

**Q.** How did the binding signal turn out when B26 was run?
**A.** The binding signal was 0.0783 KA relative to UGCAUGU.

**Q.** B27 was tested. Which binding signal did it give?
**A.** The binding signal was 0.108 KA relative to UGCAUGU.

**Q.** For B28, which binding signal is on record?
**A.** Its binding signal is 0.11 KA relative to UGCAUGU.

**Q.** B29 was tested. Which binding signal did it give?
**A.** Its binding signal is 0.108 KA relative to UGCAUGU.

**Q.** B30 was tested. Which binding signal did it give?
**A.** The binding signal was 0.144 KA relative to UGCAUGU.

**Q.** With B31 as the binder, how does the binding signal read?
**A.** Its binding signal is 0.0608 KA relative to UGCAUGU.
